# The BET-seq Pho4 binding data (Le et al. 2018)
# The other results are listed elsewhere or left out. Values were computed here from the reads of four pooled replicates and scatter widely.
# Biological target: T1, Pho4 (S. cerevisiae) (UniProt P07270)
# T1 sequence: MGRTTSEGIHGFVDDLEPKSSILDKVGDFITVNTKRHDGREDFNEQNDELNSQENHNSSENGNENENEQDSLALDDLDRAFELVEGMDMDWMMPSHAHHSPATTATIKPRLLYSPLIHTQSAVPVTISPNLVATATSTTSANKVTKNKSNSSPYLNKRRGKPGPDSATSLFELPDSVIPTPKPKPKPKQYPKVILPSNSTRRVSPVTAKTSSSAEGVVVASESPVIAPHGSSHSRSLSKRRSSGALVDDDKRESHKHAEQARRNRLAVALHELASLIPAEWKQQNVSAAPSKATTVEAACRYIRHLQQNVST
# Assay: relative binding free energy (BET-seq); higher = weaker binding
# Conditions: reference: library average
row,Sequence,relative binding free energy [kcal/mol]
1,GGGTTCACGTGTCGCT,0.22
2,TGCGTCACGTGGCGTT,0.09
3,AGGGACACGTGAGTGT,0.17
4,GATCACACGTGTGTGT,0.24
5,TAACTCACGTGGGAGG,0.24
6,CTGCGCACGTGGTGGG,-0.23
7,TGGGACACGTGTGGAT,0.05
8,TGGGCCACGTGGTATC,-0.02
9,TAGCTCACGTGTGTGT,0.26
10,TTAGGCACGTGTTCAA,-0.22
11,AGTATCACGTGTTGAG,0.1
12,TTTCTCACGTGGGGCG,0.2
13,GAATGCACGTGTGTTA,0.04
14,CGGTGCACGTGGGCAG,-0.35
15,GGATGCACGTGTTTAA,0.08
16,TTTTGCACGTGGAAAA,0.06
17,GGATACACGTGTTATA,0.05
18,ATTACCACGTGGGATT,0
19,TAGGTCACGTGGGGGG,0.03
20,CATTGCACGTGGGCGT,-0.21
21,TGGAGCACGTGGGGGA,-0.13
22,TGTGGCACGTGAAGAA,0.2
23,ATTGGCACGTGAGCAT,0.08

row,Sequence,relative binding free energy [kcal/mol]
1,GTTGTCACGTGGGGTC,0.01
2,CGGTTCACGTGCGCGG,0.23
3,TCGGCCACGTGAGTGT,0.11
4,ATAGTCACGTGCTGGT,0.06
5,GAGTACACGTGGTATT,0.07
6,ATGTCCACGTGGGTTT,0.1
7,GTAGGCACGTGGTCAA,-0.1
8,CAGTTCACGTGGTTGG,0.28
9,ATTAGCACGTGGATGG,0.06
10,GCCGTCACGTGGGATG,0.05
11,AATCGCACGTGTGTGA,0.08
12,TTGGGCACGTGTTCGG,-0.09
13,TTATTCACGTGTCAGT,0.13
14,AAGTGCACGTGAGATG,0.11
15,GTCTACACGTGAGTTG,0.25
16,ATGTGCACGTGTTTGT,-0.08
17,TGTGCCACGTGGAATA,0.18
18,AATAACACGTGGTTGT,-0.07
19,TTGGACACGTGGGAGG,0
20,TGGGTCACGTGCCAGG,0.08
21,GCTGGCACGTGATGAG,0.08
22,GCGAACACGTGTGGGG,0.14
23,GTTTCCACGTGGTTGG,0.16

row,Sequence,relative binding free energy [kcal/mol]
1,TAAATCACGTGGGAGT,0.07
2,TTTATCACGTGTTAAC,0.12
3,GTTTTCACGTGAATTT,0.49
4,AGTTACACGTGTAAGT,0.13
5,GAGTTCACGTGGGTTT,0.3
6,AGTGACACGTGTGTGC,0.07
7,TAGTGCACGTGTTCGT,-0.05
8,GGTGGCACGTGCGACG,-0.1
9,TTATCCACGTGCGTGG,-0.05
10,ATAGTCACGTGCATGT,0.07
11,GTTTGCACGTGGCGAA,-0.05
12,GTTCGCACGTGTCGTT,0.03
13,ATGGTCACGTGATCTT,0.3
14,TGAGTCACGTGATATG,0.26
15,GGAGTCACGTGGATGT,0.21
16,ATGTACACGTGAGGAT,0.25
17,TTTGGCACGTGGGGGT,-0.15
18,GTGTCCACGTGTGGCG,0.05
19,GACGTCACGTGAGTAG,0.54
20,ACGTTCACGTGTGTGG,0.22
21,TTTCACACGTGTGTAG,0.11
22,ATAGTCACGTGATGGC,0.2
23,ATGGACACGTGGGTCA,-0.18

row,Sequence,relative binding free energy [kcal/mol]
1,TGGCTCACGTGAGGAG,0.33
2,GGTGGCACGTGAGAGC,0.36
3,TTAGTCACGTGTTTTT,0.12
4,GAACTCACGTGGTGTT,0.2
5,GGGCGCACGTGGGTAC,-0.08
6,TTTGCCACGTGTTTTT,-0.02
7,GGTGGCACGTGGTCGG,-0.14
8,AGGGACACGTGATAAT,0.22
9,GGTGACACGTGTGTGT,0.13
10,TCAGGCACGTGGGTGG,-0.32
11,AGTCTCACGTGGGAAT,0.18
12,TTCATCACGTGAGTTG,0.35
13,AAGCACACGTGGGGTG,-0.09
14,TAATGCACGTGAACGT,0.19
15,TATTTCACGTGGGGGA,0.05
16,ATATTCACGTGAGGGG,0.31
17,TGATTCACGTGAACTT,0.39
18,GGATTCACGTGATGAG,0.47
19,GGTTGCACGTGATTTG,0.28
20,GGGGCCACGTGCAGGT,-0.07
21,TGTGCCACGTGTTTAT,-0.04
22,TTCGGCACGTGGTCGG,-0.26
23,TATTTCACGTGTCGCA,0.39

row,Sequence,relative binding free energy [kcal/mol]
1,GAGGTCACGTGAGAGG,0.37
2,AAAGACACGTGGTTTG,0.04
3,ATTGGCACGTGTCTAT,0
4,CCGAGCACGTGGTGGT,-0.15
5,TGTGTCACGTGGTCGT,-0.01
6,GGGCGCACGTGGGCTT,-0.31
7,TAAAGCACGTGTTTCT,-0.11
8,GTAGTCACGTGGTCGG,0.08
9,TATTGCACGTGGTAGT,-0.11
10,TGATACACGTGGGTTG,-0.09
11,GGCGTCACGTGGGTCG,0.08
12,TTGAGCACGTGCGTGA,-0.1
13,CGAGGCACGTGAGGGT,0.07
14,GGGTCCACGTGAGTAG,0.26
15,ACTGGCACGTGTTGTA,-0.03
16,CGATGCACGTGGGGCG,-0.32
17,GCGTGCACGTGTTGGT,-0.04
18,GAGTACACGTGCGTTA,0.19
19,GGAATCACGTGGGTAA,0.02
20,GATGCCACGTGGTGGG,0
21,GATAACACGTGAGGGT,0.17
22,GGGTGCACGTGCTAGT,-0.04
23,TAGGACACGTGGGGGT,-0.09
